According to the RNAGym collection of RNA variant scans (doi:10.1093/nar/gkz1192):
Read counts are not given, so values of variants with three or more changes are uncertain.

B1: CPEB3 Ribozyme (parent)
chain: UAACAGGGGGCCACAGCAGAAGCGUUCACGUCGCAGCCCCUGUCAGAUUCUGGUGAAUCUGCGAAUUCUGCUGUAUAUCUC

Variants of: B1
Assay: self-cleavage, relative activity (ratio to wild type); higher = more cleavage; in vitro, sequencing
In short: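 Relative activity was defined as the cleaved/total read fraction for a variant divided by the same fraction for the unmutated ribozyme. CPEB3 self-cleaving ribozyme libraries were made by rounds of error-prone PCR, barcoded, and transcribed in vitro with T7 RNA polymerase for 5 hours at 37°C, and cleavage ran through transcription plus a 15 min DNase I step before EDTA. Illumina sequencing of template-switched reverse transcripts gave the reads, and DNA sequencing mapped the barcodes. Averages come from three batches, using variants with at least 5 reads.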

Variant	self-cleavage
C23G U31C A35U A64G U72C	0.05
C23G U31C U78C	0.15
C23G U41C U60C U72C	0.18
C23G U43C U48C A75U	0.12
C23G U48C U66C U78A	0.2
C23U A28G U31C	1.01
C23U A35G A47U	0.49
C23U A35G G70A U72C	0.28
C23U A35G U41C U49C U67C U72A	0.12
C23U A35U U51C A57G U69G U72C	0.06
C23U A45U A77U	0.39
C23U A57G U69C	0.08
C23U A64U U69A A75G	0.13
C23U C29G U51C	0.1
C23U C29U U43A U58C	0.06
C23U C32A A45G	0.17
C23U C40A U41G A45G U74C A75G	0.19
C23U C50G A75C	0.11
C23U G46U U49C	0.2
C23U G63C A64U U80C	0.09
C23U U25C A35U A57U	0.08

Variant	self-cleavage
C23U U25C U41C	0.06
C23U U26A U66C U72A U80C	0.14
C23U U26C A35G U72C	0.18
C23U U26C A57G	0.15
C23U U26C G33C G53U U54C	0.1
C23U U26C G52U A65G U66A U67C	0.07
C23U U26C G73C U78C	0.22
C23U U26C U31C U60C U80A	0.05
C23U U26C U41C U48C	0.1
C23U U31A U51A A57U U58C	0.07
C23U U31A U54A U58C A64G	0.12
C23U U31C C40U U49C G61A G63A	0.07
C23U U31G U58A	0.06
C23U U41C A47G U58C	0.4
C23U U41C U49C U72A	0.04
C23U U43C A45U U51C U78C	0.11
C23U U43C U72C	0.12
C23U U48C U51C A57G U80A	0.18
C23U U51A U72A	0.11
C23U U51C U69C G70U C79U	0.26
C23U U54A A65G U66C	0.16

Variant	self-cleavage
C23U U54C U60C	0.11
C23U U54C U74C	0.34
C23U U60A A64G U69C A75G	0.05
C23U U60C U72C A77G	0.05
G24A A28C A56U	0.16
G24A A28G A47G G55U	0.2
G24A A28G C29U U41C	0.1
G24A A28G U41A U69C U78C	0.11
G24A A28G U60A U69C A77G	0.14
G24A A45U G55A A56C U78C	0.07
G24A A47C A56G U60C	0.13
G24A A47G U60A U69A	0.2
G24A A56G U76A	0.47
G24A A56U C59U U60A	0.15
G24A A56U C62U A64G U69C	0.09
G24A C27U A35C U72C A75G	0.19
G24A C39A U41C G46A A56G	0.1
G24A C39A U51C G63A U76C	0.07
G24A C44A A45G	0.16
G24A G30A U54C	0.33
G24A G36A U43C U51A A65G	0.08

Variant	self-cleavage
G24A U25A A64G C68A U72C	0.11
G24A U25C A45G U74C A75G A77U	0.06
G24A U25C U26C C29U A35G A65G	0.14
G24A U26C C38A U66C U78C	0.12
G24A U26C G33A A45G U72C	0.08
G24A U26C U54G	0.07
G24A U26C U54G G61C	0.09
G24A U31C A45U U49C A64G G70A	0.1
G24A U31C A57G U80A	0.52
G24A U31C U51C A56U	0.09
G24A U41A U66A	0.08
G24A U41C U58C A64U	0.13
G24A U43C A45U U80A	0.07
G24A U49C U51C U67C	0.4
G24A U49C U74C	0.07
G24A U54G U69G U80A	0.09
G24A U60G U74A	0.12
G24C A28U G42A A47U A64U	0.13
G24C A28U G42A A56C	0.13
G24C A28U U43A A57G	0.08
